# Measurements from PubChem BioAssay AID686979 (National Center for Advancing Translational Sciences (NCATS), 2013).
# In all, about 420,000 compounds went through this assay and about 50,000 (12%) were called active. The shares of active, inactive and inconclusive entries below differ from those in the screen. Calls follow the shape of the dose curve; as a rule, active = well fitted inhibition curve with a large enough effect; inconclusive = small, poorly fitted or top-dose-only effect; inactive = flat fitted curve, though single readings scatter. No potency is given beside an inconclusive call; the fits are too rough.
# Assay: qHTS for Inhibitors of human tyrosyl-DNA phosphodiesterase 1 (TDP1): qHTS in cells in presence of CPT; also: nearly all actives have a fitted effect of over 55% in size
# Settings: chicken DT40 Tdp1-/-;hTDP1 cells + 20 nM CPT, ATP luminescence, 48 h; activity change, negative = growth inhibition: at 46.2 µM (top of the series) unless noted
# Procedure, shortened: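 Chicken DT40 Tdp1-/- cells complemented with human TDP1, 400 cells/well, exposed to compounds plus 20 nM camptothecin for at least 48 h at 37 C; viability read as ATP content by CellTiter-Glo luminescence.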
# % is scaled to controls: 0 for no effect and ±100 for the full control effect; potency is read from the fitted curve at half-maximal effect; tags tell the direction and shape of the fitted curve.
Structure (SMILES),Potency,"activity change, negative = growth inhibition"
Cc1cc(NC(=O)CSc2nc(-c3ccco3)cc(C(F)(F)F)n2)no1,active: 0.58 µM,
COc1ccc(Cl)cc1NC(=O)CN(C)C(=O)c1cc2ccccc2cc1OC,"inconclusive [inhibitor, single point]",
CO[C@H]1O[C@@H]2O[C@@]3(C)CC[C@H]4[C@H](C)CC[C@@H]([C@H]1C)[C@@]24OO3,active: 2.66 µM,
c1ccc(CNn2nnc3ccccc32)cc1,inactive,
CCOc1ncccc1C(=O)OC(C)C(=O)Nc1ccc(N2CCOCC2)cc1 (stereo not drawn),inactive,
COc1cc(Cl)c(C)cc1NC(=O)COc1cc(C)nc(C(C)C)n1,"inconclusive [inhibitor, partial curve]",
CCCCN(CC)C(=O)CCn1c(=O)c2cccn2c2cccnc21,"inconclusive [inhibitor, single point]",
COc1ccccc1C(=O)c1c(N)c(-c2nc(-c3ccccc3)cs2)c2ccccn12,active: 18.4 µM,
COc1ccc(S(=O)(=O)NCc2ccccn2)cc1NC(=O)c1ccccc1F,active: 2.31 µM,
Clc1ccc2nc(N3CCCCC3)[nH]c2c1,inactive,
COc1ccc(OCCOc2ccc(S(=O)(=O)N3CCCC3)cc2[N+](=O)[O-])cc1,"inconclusive [inhibitor, single point]",
COc1cccc(NC(=S)NCc2ccccn2)c1,"inconclusive [inhibitor, single point]",
CCCn1c(SC(C(=O)Nc2cc(C)ccc2OC)c2ccccc2)nc2ccccc2c1=O (stereo not drawn),active: 18.4 µM,
O=C(NCCc1ccccc1)c1ccccc1NS(=O)(=O)N1CCCC1,inactive,
CCCN1CCN(c2ncc3c(n2)CCN(Cc2ccc(OC)c(OC)c2OC)C3)CC1,"inconclusive [inhibitor, single point]",
CC(=O)c1cccc(N(C(=O)Cn2nnc3ccccc32)C(C(=O)NCc2ccccc2)c2ccc(F)cc2)c1 (stereo not drawn),"inconclusive [inhibitor, single point]",
Cc1cc(NC(=O)C2CC(=O)N(c3ccc(Cl)cc3)C2)no1 (stereo not drawn),inactive,
Cc1cc(/C=C2\SC(=S)NC2=O)cc(C)c1O,"inconclusive [inhibitor, single point]",
Cc1c(O)c(CN2CCCC2)cc2c1oc(=O)c1ccccc12,"inconclusive [inhibitor, single point]",
CCOc1ccccc1C(=O)Nc1ccc2nc(N3CCN(c4ncccn4)CC3)cc(C)c2c1,active: 18.4 µM,
CCCCNC(=O)CN1C(=O)CSc2ccc(S(=O)(=O)N3CCC(C)CC3)cc21,"inconclusive [inhibitor, single point]",
O=C(NC1CCCc2ccccc21)C1CCN(c2nnc(-n3cccc3)s2)CC1 (stereo not drawn),active: 23.1 µM,
Cc1ccc(-c2nnn(CC(=O)N3CCCc4ccccc43)n2)cc1,,inconclusive: -34.3% [inhibitor]
CNC(=O)/C(C#N)=C/c1c(N2CCCCCC2)nc2c(C)cccn2c1=O,"inconclusive [inhibitor, full curve, poor fit]",
Cc1ccc(-c2cnn(-c3cccc(C(F)(F)F)c3)c2N)cc1,"inconclusive [inhibitor, single point]",

Structure (SMILES),Potency,"activity change, negative = growth inhibition"
C/C(CC(=O)NC1C2CC3CC(C2)CC1C3)=N\NC(=O)Cc1cccs1 (stereo not drawn),inactive,
Cc1cc(C(=O)Nc2cccc3ccccc23)n(-c2ccccc2)n1,"inconclusive [inhibitor, single point]",
CCOc1ccc(NC(=O)C2C3CCC4C(CCC32)C4(Cl)Cl)cc1 (stereo not drawn),"inconclusive [inhibitor, single point]",
COc1ccc(CN(Cc2ccccc2)C(=O)COC(C)=O)cc1COc1ccc(NC(C)=O)cc1,"inconclusive [inhibitor, single point]",
Cc1cc(C)c(S(=O)(=O)NC2CC(C)(C)NC(C)(C)C2)cc1C,"inconclusive [inhibitor, single point]",
Cn1c(-c2ccccc2)cnc1NCc1cc2c(cc1[N+](=O)[O-])OCO2,inactive,
CC(C)(C)c1ccc(C(=O)NC(CC(=O)O)c2ccc(OC3CCCC3)cc2)cc1 (stereo not drawn),inactive,
O=C(NCc1cccc(Cl)c1)c1cnc(N2CCCCC2)c2ccccc12,active: 16.4 µM,
COc1ccc(-c2oc3ccc(-c4ccc(OC)nc4)cc3c2C#CC2(O)CCCCC2)cc1,"inconclusive [inhibitor, single point]",
CCc1nnc(NC(=O)c2ccc(S(=O)(=O)N(CCOC)CCOC)cc2)o1,inactive,
Cn1cccc1CC(=O)NNC(=O)Nc1ccc(F)cc1,inactive,
CCCCOCCCNC(=O)C[C@@H]1C[C@@]2(C(=O)OCC)CCC=C2N(Cc2cccc3ccccc23)C1=O,active: 20.6 µM,
Cc1ccc2[nH]c(=O)c(CN(CCO)Cc3nnnn3CCc3ccccc3)cc2c1,"inconclusive [inhibitor, single point]",
CCN(CC)c1c(C)nc2ccc(C(=O)NCc3ccc4c(c3)OCO4)cn12,inactive,
CCOC(CNC(=O)c1cccn2c(=O)c3cc(Cl)ccc3nc12)OCC,active: 11.6 µM,
Cc1ccccc1OCCC(=O)Nc1cc(S(=O)(=O)N2CCCCC2)ccc1N1CCN(C)CC1,"inconclusive [inhibitor, single point]",
C=C(C)COc1ccc(-c2n[nH]c(C)c2-c2ccccc2OC)c(O)c1,"inconclusive [inhibitor, single point]",
COc1ccccc1NC(=O)Cc1nnc(SCC(=O)c2ccccc2)n1C,inactive,
Cc1cc(NC(=O)CSCC(=O)Nc2cc(C(F)(F)F)ccc2N2CCOCC2)no1,inactive,
Cc1ccccc1N1CC(C(=O)N2CCCCCC2)CC1=O (stereo not drawn),inactive,
CC1(C)CCC[C@@]2(C)C1CC[C@@](C)(O)[C@@H]2CC[C@@](C)(O)C1CO1 (stereo partly drawn),"inconclusive [inhibitor, single point]",
CC(=O)c1cccc(NC(=O)COc2ccc3oc(=O)cc(C)c3c2)c1,active: 18.4 µM,
COc1cc(/C=N/Nc2cccc(C)c2)cc(Br)c1O,inactive,
CN(C)c1nc(-c2cn(CCC#N)c3ccccc23)cs1,"inconclusive [inhibitor, single point]",
CCN(C(C)=O)c1cnc(C=NNC(N)=S)c2ccccc12,active: 3.66 µM,

Structure (SMILES),Potency,"activity change, negative = growth inhibition"
Cc1nnc(SCCCn2c(N3CCN(c4ccccc4)CC3)nc3c2c(=O)[nH]c(=O)n3C)s1,"inconclusive [inhibitor, single point]",
O=C(CNC(=O)c1cccnc1)N/N=C/c1cccnc1,inactive,
COC(=O)c1cccc(Nc2c(-c3ccc(SC)cc3)nc3nc[nH]n23)c1,inactive,
O=C(CCCNS(=O)(=O)c1cccs1)N1CCc2ccccc2C1,inactive,
CCc1ccc(C2N=C(N)Nc3nc4ccccc4n32)cc1 (stereo not drawn),active: 16.4 µM,
C[C@@H]1CN([C@@H](C)CO)C(=O)c2cccc(NC(=O)C3CCCCC3)c2O[C@@H]1CN(C)Cc1ccc(Cl)c(Cl)c1,active: 10.3 µM,
Cc1cccc(N2CCN(c3ncnc4onc(C)c34)CC2)c1C,"inconclusive [inhibitor, single point]",
COc1ccc(Cl)cc1NC(=O)CN(c1cccc(C)c1C)S(C)(=O)=O,"inconclusive [inhibitor, single point]",
CCCCCNC(=O)C(c1cc2ccccc2o1)n1c(=O)c(-c2ccccc2)nc2ccccc21 (stereo not drawn),"inconclusive [inhibitor, single point]",
Cc1nc(N/N=C/c2ccc(O)cc2O)cc(N2CCOCC2)n1,"inconclusive [inhibitor, single point]",
N#Cc1c(-c2ccccc2)nc(N2CCN(Cc3ccccc3)CC2)[nH]c1=O,inactive,
Cc1nn(S(=O)(=O)c2ccc([N+](=O)[O-])cc2)c(C)c1Sc1ccccc1,"inconclusive [inhibitor, partial curve]",
COc1ccc(OC)c(C(=O)c2ccc(Cl)cc2)c1,inactive,
CC1(C)CC(NC(=O)C2CCC(=O)N(Cc3ccccc3F)C2)CC(C)(C)C1 (stereo not drawn),"inconclusive [inhibitor, single point]",
O=C(CSc1nc2ccccc2o1)Nc1ccccc1N1CCOCC1,"inconclusive [inhibitor, single point]",
COc1cc(/C=N/N2CCN(C3c4ccccc4-c4ccccc43)CC2)cc(OC)c1O,"inconclusive [inhibitor, single point]",
COC(=O)c1ccc(COc2cc([N+](=O)[O-])cc3cccnc23)o1,inactive,
COc1ccccc1NC(=S)N/N=C/c1cccc(C)c1,"inconclusive [inhibitor, single point]",
CC(Oc1cccc(Cl)c1)C(=O)Nc1cc(=O)n(C)c(=O)n1C (stereo not drawn),"inconclusive [inhibitor, partial curve]",
O=c1oc(-c2ccccc2NS(=O)(=O)c2ccc(Cl)cc2)nc2ccccc12,"inconclusive [inhibitor, single point]",
CCNC(=O)c1ccccc1SCC(=O)Nc1ccc(F)cc1,active: 16.4 µM,
Cc1ccc(S(=O)(=O)N(CC(=O)N/N=C/c2cccc(C)c2)c2cccc3cccnc23)cc1,"inconclusive [inhibitor, single point]",
Clc1ccccc1-c1nc(/C=N/N2CCOCC2)c2ccccn12,"inconclusive [inhibitor, single point]",
